Read counts are not given, so values of variants with three or more changes are uncertain.
B1: LINE1-full (parent)
chain: UACGUAGGUGGUUUUCCCCUGAUAGUGCUAAGGGGGCCUGGAAGUUUGGACUGGGCAGAGCUCAACACAGCGUGGCAAAGUGGCUGUGGCUAGACUGCCUCUCUGGAUUCCUCGUCACUCAGCAGGGCAUCUCUGAGAGAAAUGCC

Variants of: B1
Test: self-cleavage, relative activity (ratio to wild type); higher = more cleavage; in vitro, sequencing; the parent is a self-cleaving ribozyme

Variant | self-cleavage
U62A A92U C116G | 0.05
U62A A124U A129G U143C | 0
U62A C98U A121G | 0.04
U62A C113U A117G | 0.04
U62A C131U U134C | 0.03
U62A G80U G89A U96C A117U | 0.02
U62A U73A A79G | 0.08
U62A U73C A94G | 0.22
U62A U73C A138G A140U | 0.1
U62A U81C A124U A129G A136G | 0
U62A U85A U143C | 0.02
U62A U85C U132C | 0.39
U62A U87C A124G U132A | 0.12
U62A U87C U132A | 0.05
U62A U104A A121U A124G | 0
U62A U108C C145G | 0
U62A U108C U132C | 0.02
U62A U112A U132C A138G | 0
U62A U132C A141G | 0.02
U62A U134C A142G | 0.07
U62A U134C C145U | 0.08
U62C A64C A92G | 0
U62C A64G A77U | 0
U62C A64G C66U | 0.03

Variant | self-cleavage
U62C A64U A65G G122C | 0.05
U62C A64U A141G | 0.06
U62C A64U U87A U132C | 0.16
U62C A65G A67U U100C | 0
U62C A65G A78G | 0
U62C A65G A124G | 0.2
U62C A65G A136G | 0
U62C A65U G86A A94G A129U A136U | 0.05
U62C A65U U85C | 0.03
U62C A67G A77U U109C | 0
U62C A67G C113A G125U | 0
U62C A69G A78G | 0
U62C A69G A141G | 0.08
U62C A69G A142G | 0.11
U62C A69G U119C A141G U143C | 0
U62C A69U A129G | 0.02
U62C A69U U115A U132C | 0.05
U62C A69U U143C | 0.04
U62C A77G C145U | 0.04
U62C A77G U130C | 0
U62C A77U A79G | 0.07
U62C A78G U102A | 0.12
U62C A79G U119A U143C | 0.07
U62C A79U U108C | 0.03

Variant | self-cleavage
U62C A92U U115A | 0.02
U62C A94G U119A U134C | 0
U62C A94G U134C U143C | 0.15
U62C A94U U112A U134C | 0
U62C A117U A136G | 0
U62C A140G A142G | 0.07
U62C A141G A142U | 0.12
U62C C66U U96A U119C A136G A141G | 0.02
U62C C71A A136U A140G | 0.02
U62C C71U U115C | 0
U62C C76A U85C A142G | 0.02
U62C C76U U87C | 0.03
U62C C84U A136G | 0.05
U62C C90U U143C | 0.04
U62C C95G U104C A129C | 0
U62C C98G U143A | 0.27
U62C C111U U112C | 0.06
U62C G70U A79U U132C | 0.1
U62C G72A A77G | 0.03
U62C G72A U87A A121G A124U A142G | 0.01
U62C G86U A124U | 0.03
U62C G97U C116A A142G | 0.02
U62C U73C A140G | 0
U62C U73C A141G | 0.04

Variant | self-cleavage
U62C U73C U132A | 0
U62C U81A A129G | 0.01
U62C U81A A136G | 0.03
U62C U81A A138U | 0.01
U62C U85G A117G A138G | 0
U62C U85G U87A | 0.14
U62C U87A A141G | 0.05
U62C U87A U143A | 0.05
U62C U87C G125C | 0.51
U62C U87G G122U | 0.03
U62C U87G U100C | 0.2
U62C U91A A94G | 0
U62C U91A A117U | 0.01
U62C U96A A121U U132C | 0.08
U62C U96A A138G | 0.03
U62C U96A U130C A136G | 0
U62C U96C A136G | 0.07
U62C U100C A129G A136U | 0
U62C U100C A138G | 0.05
U62C U102A U109C A121G A142G | 0
U62C U102C U119C | 0.17
U62C U102G A141G | 0
U62C U104C A129G | 0
U62C U108C A136G | 0

Variant | self-cleavage
U62C U108C C113U | 0.03
U62C U115C U130A G137A A141G | 0
U62C U115C U130C | 0.18
U62C U119C A140G | 0.08
U62C U132C A142G | 0.11
U62G A65G A107U | 0
U62G U112C G127A | 0.12
C63A A94C A107U | 0.02
C63A U112C U115A | 0.05
C63U A65U U85A | 0.05
C63U A69C A79G A138G | 0.01
C63U A79U U96C | 0.1
C63U A107C U112C A138G | 0.39
C63U A107G A124G | 0.25
C63U A121U U130C U134G A140U | 0.61
C63U G75A A136G | 0.28
C63U U85C U109C | 0.6
C63U U85C U112C A117U A141G U143C | 0.06
C63U U100C A136G A140G | 0.43
A64C A69G U102A A124G | 0
A64C A92U A140G | 0.15
A64C U87C A141G | 0.3
A64C U91C U130C | 0.28
A64C U112C A121U A129G | 0.35

Variant | self-cleavage
A64G A65U U73A | 0.01
A64G A67G U119C | 0
A64G A69U A141G | 0.01
A64G A77G A129U | 0.26
A64G A77G U81A U102A A138G | 1.23
A64G A77G U81C | 0
A64G A77G U112C A136G | 0.35
A64G A77U U81C U109A | 0.3
A64G A79G G106U | 0.2
A64G A79G U119C | 0.45
A64G A94G A141G | 0.24
A64G A107G A129G | 0
A64G A107G U112A | 0.56
A64G A107G U134C | 0.45
A64G A107U A138G A141G | 0.24
A64G A117U U134C | 0.29
A64G A124G A141G | 0.32
A64G A141G U143C | 0.21
A64G C68U A94G U143C | 0.2
A64G C71U A79G | 0.11
A64G C71U U85C A129G | 0.11
A64G C90A C120U | 0
A64G C113A A141G | 0.07
A64G C116U A141G | 0.29

Variant | self-cleavage
A64G C128G U143A | 0.12
A64G G75A A141G | 0.16
A64G G86A C118U C128U | 0.02
A64G G88A U102A A136G | 0.04
A64G G93A U134C A140G U143C | 0.02
A64G U73A G114A C133U | 0.22
A64G U73A U85C U102C A141G | 0.17
A64G U73C C98A | 0
A64G U73C U130C | 0
A64G U85A U104C U119C A124U | 0.37
A64G U85C A117U | 0.12
A64G U85C U112C A141U | 0
A64G U87A G88U | 0.03
A64G U87C C95U | 0
A64G U91C U100C | 0.42
A64G U96A U143C | 0.03
A64G U96C A117U | 0.07
A64G U96C A129G | 1.53
A64G U102A A140G | 0.15
A64G U104A A107G A138G A140G | 0.12
A64G U115A A141G | 0.19
A64G U115C A129G U132C | 0
A64G U115C A136U A141G | 0.18

Source: the RNAGym collection of RNA variant scans (doi:10.7554/elife.90254)
